Experimental data taken from PMC4336329 (PLoS ONE, 2015).
Screen size: about 310,000 compounds; about 14,000 (4.5%) showed an effect of 50% or more. Effects have a minus sign here. This is one part of the list.

biological target: human ether-à-go-go-related gene (hERG) potassium channel (human, UniProt Q12809); assay: primary screen, population patch clamp on CHO cells stably expressing hERG
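Also: peak tail current of the secondary pulse compared with the same well before compound.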

Chain of human ether-à-go-go-related gene (hERG) potassium channel (Q12809 whole entry, looked up): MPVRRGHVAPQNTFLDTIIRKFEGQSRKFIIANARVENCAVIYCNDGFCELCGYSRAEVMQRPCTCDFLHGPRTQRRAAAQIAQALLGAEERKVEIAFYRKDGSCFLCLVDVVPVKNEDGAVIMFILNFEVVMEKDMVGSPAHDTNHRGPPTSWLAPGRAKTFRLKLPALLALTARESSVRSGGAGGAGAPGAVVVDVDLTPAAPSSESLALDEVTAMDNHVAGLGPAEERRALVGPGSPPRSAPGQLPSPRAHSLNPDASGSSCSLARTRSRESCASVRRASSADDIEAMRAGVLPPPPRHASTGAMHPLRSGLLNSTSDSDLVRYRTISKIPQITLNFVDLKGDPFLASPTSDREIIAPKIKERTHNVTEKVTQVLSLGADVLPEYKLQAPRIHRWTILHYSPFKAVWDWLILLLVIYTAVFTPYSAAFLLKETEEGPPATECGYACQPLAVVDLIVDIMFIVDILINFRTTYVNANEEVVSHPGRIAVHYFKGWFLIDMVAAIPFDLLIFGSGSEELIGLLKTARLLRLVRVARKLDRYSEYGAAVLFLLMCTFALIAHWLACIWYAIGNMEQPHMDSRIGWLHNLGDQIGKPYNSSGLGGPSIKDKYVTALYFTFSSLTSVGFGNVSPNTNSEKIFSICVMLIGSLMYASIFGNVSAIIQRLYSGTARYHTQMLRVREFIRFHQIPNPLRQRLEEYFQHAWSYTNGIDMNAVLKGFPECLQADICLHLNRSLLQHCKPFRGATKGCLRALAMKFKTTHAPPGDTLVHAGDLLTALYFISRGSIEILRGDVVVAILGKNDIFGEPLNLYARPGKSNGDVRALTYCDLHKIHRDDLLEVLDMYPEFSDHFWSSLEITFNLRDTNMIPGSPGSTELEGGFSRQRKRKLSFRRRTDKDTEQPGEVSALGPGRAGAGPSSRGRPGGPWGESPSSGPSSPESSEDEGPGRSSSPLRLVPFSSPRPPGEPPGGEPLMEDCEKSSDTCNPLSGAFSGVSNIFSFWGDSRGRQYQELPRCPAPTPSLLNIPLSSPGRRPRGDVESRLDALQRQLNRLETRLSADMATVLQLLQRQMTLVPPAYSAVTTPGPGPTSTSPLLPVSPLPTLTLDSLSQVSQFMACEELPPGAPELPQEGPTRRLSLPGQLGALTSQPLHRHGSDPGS

SMILES	hERG current change (%, negative = inhibition) at 10uM
Cc1cccc(N2C(=O)CC(Sc3ncn[nH]3)C2=O)c1 (stereo not drawn)	17.3%
O=C(Nc1nnc(CC(c2ccccc2)c2ccccc2)s1)c1ccco1	17.9%
Cc1ccccc1OCCC(=O)OCC(=O)NCCc1ccc(S(N)(=O)=O)cc1	-29%
CCOC(=O)C1(CCOc2ccccc2)CCN(Cc2cccn2-c2cccnc2)CC1	-51.8%
OCCC1CN(Cc2nc3c(s2)CCCC3)CCN1Cc1ccsc1 (stereo not drawn)	-14.6%
CC(C)(C)c1ccc(-c2nc(-c3ccncc3)no2)cc1	5.92%
Cc1nc2ccccc2n1CC(=O)NCc1ccccc1	21.4%
CN(C(=O)c1ccccc1F)C(c1ccccc1)c1ccccc1	8.16%
CC(=O)c1ccc(N2C(=NC(=O)CCc3ccccc3)SC3CS(=O)(=O)CC32)cc1 (stereo not drawn)	-5.21%
Cc1sc2nc(SCc3ccccc3)n(Cc3ccco3)c(=O)c2c1C	-2.09%
COc1ccc(C)cc1NC1=NCCCS1	19%
CC(=O)Nc1ccc(NC(=O)CSc2n[nH]c(-c3cccs3)n2)cc1	-5.05%
Cc1nn(Cc2ccc(Cl)cc2)c(C)c1NC(=O)CCCn1nc([N+](=O)[O-])c(Cl)c1C	-64%
CC(=O)Nc1ccc(NC(=O)C(C)N2CCN(S(=O)(=O)c3ccc(C)cc3)CC2)cc1 (stereo not drawn)	17.1%
COc1cccc(-c2nc(CS(=O)(=O)CC(=O)N3CCc4ccccc43)c(C)o2)c1	11.3%
CC(=O)N1CCN(C(=O)COc2ccc(N(C)S(=O)(=O)c3cccs3)cc2)CC1	-14.7%
C/C(CC(=O)NCc1ccco1)=N\NC(=O)C(c1ccccc1)c1ccccc1	-9.57%
NNC(=O)CC(=O)NC1(Cc2ccc(O)cc2)CCCCC1	-27.5%
O=C(CN1CCN(Cc2ccccc2)CC1)NC(=O)NCc1ccco1	-30.3%
O=C(COc1ccc2c(c1)oc(=O)c1ccccc12)NCC1CCC(C(=O)O)CC1 (stereo not drawn)	4.69%
CC(=O)c1sc(N/N=C/c2cccc([N+](=O)[O-])c2)nc1C	25.2%

SMILES	hERG current change (%, negative = inhibition) at 10uM
O=C(Nc1ccc(S(=O)(=O)Nc2ccccn2)cc1)c1cccc([N+](=O)[O-])c1	-4.13%
NS(=O)(=O)c1ccc(CCNC(=O)CCc2nc3sc4c(c3c(=O)[nH]2)CCCC4)cc1	17.6%
CS(=O)(=O)c1cccc(S(=O)(=O)N2CCCCCC2)c1	10.7%
O=C1N=C(N2CCCCC2)SC1=C1CCCC1	15.5%
O=Cc1cccc(OC(=O)Nc2ccccc2)c1	6.95%
COc1ccc(NC(=O)Cn2nnc(C(=O)NCc3ccco3)c2N)cc1	17%
COc1c(OC(C)=O)ccc(/C=C/c2ccc3cccc(OCc4ccccc4)c3n2)c1[N+](=O)[O-]	17.2%
Cc1cccc(-c2nnn(Cc3nnc(NC(=O)c4ccccc4)s3)n2)c1	4.02%
Cc1cc(S(=O)(=O)NCC(C)C)ccc1OCC(=O)NC1CC1	-8.22%
CC1(C)Cc2cccc(C(=O)NC3CCN(Cc4ccccc4)CC3)c2O1	-49.6%
Cc1nc2ccc(Br)cn2c1C(=O)N/N=C\c1ccccc1[N+](=O)[O-]	27.6%
NC(=O)c1ccc(NC(=O)COC(=O)c2cc([N+](=O)[O-])ccc2N2CCOCC2)cc1	-8.28%
CCOC(=O)CSc1n[nH]c(-c2cccnc2)n1	11.7%
CC(C)(C)C1C/C(=C/c2ccco2)C(=O)/C(=C/c2ccco2)C1 (stereo not drawn)	-10.3%
COc1cc(OC)c(NC(=O)c2ccc(Br)o2)cc1Cl	-12.2%
O=C(CCCN1C(=O)/C(=C\c2cccs2)SC1=S)Nc1ccc(O)cc1	22.6%
COc1ccc2oc(=O)c(C(=O)N3CCN(C(=O)c4ccco4)CC3)cc2c1	-12.9%
O=C(COc1ccc2ccccc2c1)NCCNC(=O)COc1ccc2ccccc2c1	17.2%
CCOC(=O)N1CCN(Cc2nc3c(c(=O)n(C)c(=O)n3C)n2Cc2cccc3ccccc23)CC1	-29.2%
CCOC(=O)c1ccc2cccc(C)n2c1=O	3.05%
NNC(=O)CNC(c1ccccc1)c1cc(Br)ccc1NC(=O)c1ccccc1Br (stereo not drawn)	-14.9%
